Data published in PMC4336329 (PLoS ONE, 2015).
Hit rate of the full screen: of about 310,000 compounds, about 2,200 (0.71%) showed an effect of 50% or more. Effects have a minus sign here. Some of the results follow.

These compounds were tested against human ether-à-go-go-related gene (hERG) potassium channel (human, UniProt Q12809) (assay: primary screen, population patch clamp on CHO cells stably expressing hERG).
human ether-à-go-go-related gene (hERG) potassium channel, sequence (Q12809 whole entry, looked up): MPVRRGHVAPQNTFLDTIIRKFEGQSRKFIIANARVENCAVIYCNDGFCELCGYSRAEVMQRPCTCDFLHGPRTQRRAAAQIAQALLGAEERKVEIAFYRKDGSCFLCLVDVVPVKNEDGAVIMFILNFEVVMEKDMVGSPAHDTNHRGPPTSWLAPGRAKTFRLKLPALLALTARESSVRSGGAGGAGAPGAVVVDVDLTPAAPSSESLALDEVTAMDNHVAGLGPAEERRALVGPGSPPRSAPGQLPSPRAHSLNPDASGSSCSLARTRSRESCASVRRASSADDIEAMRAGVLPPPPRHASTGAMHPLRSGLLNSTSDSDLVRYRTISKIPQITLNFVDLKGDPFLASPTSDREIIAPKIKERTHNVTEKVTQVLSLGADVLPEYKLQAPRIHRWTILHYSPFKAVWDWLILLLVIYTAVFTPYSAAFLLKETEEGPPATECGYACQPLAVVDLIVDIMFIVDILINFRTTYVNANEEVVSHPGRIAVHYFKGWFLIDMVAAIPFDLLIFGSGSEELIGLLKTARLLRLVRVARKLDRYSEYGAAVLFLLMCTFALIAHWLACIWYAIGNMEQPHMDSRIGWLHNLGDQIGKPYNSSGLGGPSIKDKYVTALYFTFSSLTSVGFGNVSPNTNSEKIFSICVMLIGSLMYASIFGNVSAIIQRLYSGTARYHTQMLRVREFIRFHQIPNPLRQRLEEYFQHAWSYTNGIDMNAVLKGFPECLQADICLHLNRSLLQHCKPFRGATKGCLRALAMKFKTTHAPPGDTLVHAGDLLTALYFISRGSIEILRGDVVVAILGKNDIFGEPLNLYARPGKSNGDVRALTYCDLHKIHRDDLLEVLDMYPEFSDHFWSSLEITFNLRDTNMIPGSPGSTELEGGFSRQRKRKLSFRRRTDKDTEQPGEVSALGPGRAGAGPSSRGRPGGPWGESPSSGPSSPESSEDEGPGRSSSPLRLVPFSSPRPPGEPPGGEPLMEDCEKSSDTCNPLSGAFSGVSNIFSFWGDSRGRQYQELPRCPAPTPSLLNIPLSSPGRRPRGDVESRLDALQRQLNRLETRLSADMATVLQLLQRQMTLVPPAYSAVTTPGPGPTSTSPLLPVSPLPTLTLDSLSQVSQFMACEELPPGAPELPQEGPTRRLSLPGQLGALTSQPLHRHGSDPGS

Row | Compound | hERG current change (%, negative = inhibition) at 1uM [%]
1 | CCCCN(C(=O)c1oc2ccc(OCC)cc2c1C)c1c(N)n(CCCC)c(=O)[nH]c1=O | 10.2
2 | Cc1c(O)nc(SCC(=O)Nc2nccs2)n(-c2ccccc2F)c1=O | 2.6
3 | CC(C)Cn1c(N)c(C(=O)COC(=O)c2ccc(O)cc2O)c(=O)n(C)c1=O | 9.49
4 | CC(=NCCCn1ccnc1)C1=C(O)c2ccccc2C1=O | -33.7
5 | CCc1ccc(NC(=O)CSc2nc3cc(C(=O)OC)ccc3c(=O)n2CC2CCCO2)cc1 (stereo not drawn) | 15.2
6 | CC(C)(C)CC(=O)Nc1cc2c3c(c1)CC(=O)N3CCC2 | 21.4
7 | NC(=S)c1c(Cl)cc(C(F)(F)F)cc1Cl | 7.69
8 | CCCN(CCC)C(=O)CSc1nc2n[nH]c(C)c2c(=N)n1-c1ccc(OCC)cc1 | 8.14
9 | CCn1c(SCC(=O)Nc2nccs2)nnc1-c1ccncc1 | 13.5
10 | Cc1cccc(C(=O)N2CCC(c3nc(-c4ccc(S(=O)(=O)N5CCOCC5)cc4)no3)CC2)c1 | 2.03
11 | CCN1C(=O)/C(=C/N(C)c2ccccc2)OC1=S | 12.2
12 | S=c1[nH]nc(-c2ccccc2Br)n1Cc1ccccc1 | 14.2
13 | O=C(NCc1ccc2c(c1)OCO2)c1cccc(F)c1 | 12.7
14 | COc1nc(NCCO)nc(Nc2ccc([N+](=O)[O-])cc2)n1 | -11.6
15 | OCCOCCn1c2ccccc2c2ccccc21 | 0.304
16 | Cn1c(=O)c2c(nc(NCc3ccco3)n2Cc2ccccc2Cl)n(C)c1=O | 13.6
17 | Cc1ccc2nc(-c3ccccc3)c(-c3ccccc3)nc2c1 | 10.2
18 | O=C(NCc1cccs1)C1CCCCC1 | -5.85
19 | Cc1cc(Br)ccc1SCC(=O)OC/C(O)=C(\C#N)c1nc2ccccc2[nH]1 | -1.2
20 | CC(NC(=O)CN(Cc1ccccc1)S(=O)(=O)c1ccccc1)c1cccnc1 (stereo not drawn) | 5.56
21 | CCn1ncc(S(=O)(=O)NCc2ccccc2Cl)c1C | 4.87
22 | CC(C)Oc1ccc(C(=O)Nc2nnc(C3=COCCO3)o2)cc1 | -6.32
23 | CCOC(=O)c1c(C)[nH]c(C)c1S(=O)(=O)NCCCN1CCOCC1 | 9.16

Row | Compound | hERG current change (%, negative = inhibition) at 1uM [%]
24 | CCCc1cc(=O)n2[nH]c(-c3ccco3)nc2n1 | 11.3
25 | CC(C)C(=O)Nc1cccc(C(=O)NCc2ccc3c(c2)OCO3)c1 | -3.7
26 | O=C(CN1C(=O)NC2(CCc3ccccc32)C1=O)Nc1ccc(Br)cc1F (stereo not drawn) | 10.6
27 | COCC(C)OC(=O)c1c(N)n(CC(C)C)c2nc3ccccc3nc12 (stereo not drawn) | -46.6
28 | CC1CCCN(C(=S)NC2CCCC2)C1 (stereo not drawn) | 16.8
29 | COCc1ccc(-c2ccc3c(c2)c(C#Cc2ccsc2)c(-c2cc(OC)cc(OC)c2)n3C)cc1 | 10.1
30 | CC1(c2ccccc2)NC(=O)N(CC(=O)Nc2ccc(N3CCOCC3)cc2N2CCOCC2)C1=O (stereo not drawn) | 15.4
31 | CN1N=C(C(=O)N2CCN(c3ccc([N+](=O)[O-])cc3)CC2)CCC1=O | -42.8
32 | CCOc1cc(/C=C2/C(=N)N3C(=NC2=O)SN=C3S(=O)(=O)C(C)C)ccc1OC(=O)c1ccco1 | 14.7
33 | COC(CN(C)C(=O)c1cn(C)c2ccc(S(=O)(=O)N(C)C3CCCCC3)cc2c1=O)OC | 14.5
34 | Oc1ccccc1-c1cc(-c2ccccc2)no1 | 12.6
35 | CC(=O)c1c(C)[nH]c(C(=O)CSc2ccc(F)cc2)c1C | 9.59
36 | CCOC(=O)CN1C(=O)c2ccccc2C1=O | 12.3
37 | COc1ccc(N2CCN(S(=O)(=O)c3ccc(Cl)c(C(F)(F)F)c3)CC2)cc1 | 8.26
38 | CCOC(=O)c1csc(NNC=O)n1 | 3.17
39 | Cc1ccccc1C(=O)Nc1c2c(nn1C(C)(C)C)CS(=O)(=O)C2 | 2.65
40 | O=C(COc1cc2oc(=O)c3c(c2cc1Cl)CCC3)NCCCN1CCOCC1 | 12.6
41 | O=C(COc1cccnc1[N+](=O)[O-])NCc1ccc2c(c1)OCO2 | 1.17
42 | CCCCC(=O)Nc1ccc(NC(=O)c2ccco2)cn1 | 14.8
43 | Cc1nn2c(C)nc3sc4c(c3c2nc1=O)CC(C)(C)OC4 | 11.9
44 | Cc1cccc(/C=N/NC(=O)c2ccc3c(c2)OCCO3)c1O | 12
45 | CNC(=O)c1ccsc1NC(=O)CN1C(=O)CCC1=O | 11.2
